One experiment has as its target human GLP-1 receptor (human, UniProt P43220 24-463). Kind of experiment: cell-based or functional assay.
Experiment [1] deals with T1, human neuropeptide Y2 receptor (human, UniProt P49146 1-381).
T1 sequence (looked up): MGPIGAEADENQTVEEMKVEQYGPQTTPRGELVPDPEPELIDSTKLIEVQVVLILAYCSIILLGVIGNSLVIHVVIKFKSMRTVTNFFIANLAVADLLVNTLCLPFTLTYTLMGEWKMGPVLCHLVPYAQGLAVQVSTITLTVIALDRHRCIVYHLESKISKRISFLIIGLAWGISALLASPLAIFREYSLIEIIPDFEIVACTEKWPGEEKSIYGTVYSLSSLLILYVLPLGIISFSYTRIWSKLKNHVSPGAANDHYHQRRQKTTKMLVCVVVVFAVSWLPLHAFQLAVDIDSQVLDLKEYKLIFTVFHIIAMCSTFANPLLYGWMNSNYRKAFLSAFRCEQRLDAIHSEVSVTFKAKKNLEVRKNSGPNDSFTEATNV
Put plainly: cell-based or functional assay.

These results are taken from patent publication US20190330296A1 (Janssen / Centocor, published 2019).

Where “and” joins values, the source holds several entries; their conditions need not be identical. Equal values may be shown once.

Sequence of human GLP-1 receptor (P43220 24-463): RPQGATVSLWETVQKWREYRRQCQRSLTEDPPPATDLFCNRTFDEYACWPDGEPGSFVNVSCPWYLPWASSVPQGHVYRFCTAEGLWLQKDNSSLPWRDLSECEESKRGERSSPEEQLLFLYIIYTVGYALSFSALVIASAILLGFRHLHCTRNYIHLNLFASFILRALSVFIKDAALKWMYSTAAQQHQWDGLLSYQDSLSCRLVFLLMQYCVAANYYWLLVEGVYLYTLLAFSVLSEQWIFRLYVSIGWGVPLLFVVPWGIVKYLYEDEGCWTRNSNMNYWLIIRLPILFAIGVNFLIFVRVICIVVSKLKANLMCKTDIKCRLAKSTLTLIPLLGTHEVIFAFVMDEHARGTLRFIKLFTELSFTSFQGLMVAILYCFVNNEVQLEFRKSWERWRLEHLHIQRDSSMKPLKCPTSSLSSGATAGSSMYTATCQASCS

B1: GLP-1 fusion peptide GF19 (SEQ ID NO:131) (Fc fusion)
chain: HGEGTFTSDVSSYLEEQAAKEFIAWLVKGGGGGGGAGGGGAGGGGAA[human IgG4 Fc with S228P F234A L235A (EU numbers) not written out]GGGAPAPAPEEEPCA
In the case of B1, in the experiment with human GLP-1 receptor, the “Human GLP1R EC50” value is 0.05 nM and 0.106 nM.

B2: GLP-1 fusion peptide coupled cyclic PYY peptide conjugate SEQ ID NO:251 (Fc fusion)
chain: HGEGTFTSDVSSYLEEQAAKEFIAWLVKGGGGGGGAGGGGAGGGGAA[human IgG4 Fc with S228P F234A L235A (EU numbers) not written out]GGGAPAPAPEEEPCA
peptide: GISPEAPGEKASPEELNRYYASLRHYLNCVTRQRY
modifications: [cyclo-(G2-COCH2-C30), K(AcBr)11, N-Me-R35]-PYY2-36; Br displaced on conjugation to the linker Cys; C-terminal amide; Cys of the second linker peptide thioether-linked to the Lys11 side chain of the cyclic PYY peptide
For the molecule B2, the “Human Y2R EC50” value in experiment [1] was 0.015 nM. For the same molecule, the “Human GLP1R EC50” value with human GLP-1 receptor stood at 0.062 nM.

B3: GLP-1 fusion peptide GF63 (SEQ ID NO:175) (Fc fusion)
chain: HGEGTFTSDVSSYLEEQAAKEFIAWLVKGGGAPAPAPAPAPAPAPAPAPAPA[human IgG4 Fc with S228P F234A L235A (EU numbers) not written out]ASGSAPAPAPEEEPCA
B3: the “Human GLP1R EC50” value with human GLP-1 receptor amounted to 0.042 nM.

B4: GLP-1 fusion peptide coupled cyclic PYY peptide conjugate SEQ ID NO:240 (Fc fusion)
chain: HGEGTFTSDVSSYLEEQAAKEFIAWLVKGGGAPAPAPAPAPAPAPAPAPAPA[human IgG4 Fc with S228P F234A L235A (EU numbers) not written out]ASGSAPAPAPEEEPCA
peptide: GISPEAPGEKASPEELNRYYASLRHYLNCVTRQRY
modifications: [cyclo-(G2-COCH2-C30), K(AcBr)11, N-Me-R35]-PYY2-36; Br displaced on conjugation to the linker Cys; C-terminal amide; Cys of the second linker peptide thioether-linked to the Lys11 side chain of the cyclic PYY peptide
Consider B4, for which the “Human Y2R EC50” value in experiment [1] worked out at 0.007 nM. Moreover, the “Human GLP1R EC50” value with human GLP-1 receptor stood at 0.036 nM.

B5: GLP-1 fusion peptide coupled cyclic PYY peptide conjugate SEQ ID NO:225 (Fc fusion)
chain: HGEGTFTSDVSSYLEEQAAKEFIAWLVKGGGGGGGAGGGGAGGGGAA[human IgG4 Fc with S228P F234A L235A (EU numbers) not written out]APAPAPAPAPAPCP
peptide: GISPEAPGEKASPEELNRYYASLRHYLNCVTRQRY
modifications: [cyclo-(G2-COCH2-C30), K(AcBr)11, N-Me-R35]-PYY2-36; Br displaced on conjugation to the linker Cys; C-terminal amide; Cys of the second linker peptide thioether-linked to the Lys11 side chain of the cyclic PYY peptide
As to B5, the “Human Y2R EC50” value in experiment [1] was 0.009 nM. Also, in the experiment with human GLP-1 receptor, the “Human GLP1R EC50” value is 0.078 nM.

B6: GLP-1 fusion peptide GF1 (SEQ ID NO:113) (Fc fusion)
chain: HGEGTFTSDVSSYLEEQAAKEFIAWLVKGGGGGGGAGGGGAGGGGAA[human IgG4 Fc with S228P F234A L235A (EU numbers) not written out]APAPAPAPAPAPCP
Regarding B6, the “Human GLP1R EC50” value with human GLP-1 receptor turned out to be 0.062 nM.

B7: GLP-1 fusion peptide coupled cyclic PYY peptide conjugate SEQ ID NO:233 (Fc fusion)
chain: HGEGTFTSDVSSYLEEQAAKEFIAWLVKGGGGGGGAGGGGAGGGGAA[human IgG4 Fc with S228P F234A L235A (EU numbers) not written out]APAPEEPCA
peptide: GISPEAPGEKASPEELNRYYASLRHYLNCVTRQRY
modifications: [cyclo-(G2-COCH2-C30), K(AcBr)11, N-Me-R35]-PYY2-36; Br displaced on conjugation to the linker Cys; C-terminal amide; Cys of the second linker peptide thioether-linked to the Lys11 side chain of the cyclic PYY peptide
Turning to B7, the “Human Y2R EC50” value in experiment [1] was determined as 0.01 nM. In addition, the “Human GLP1R EC50” value with human GLP-1 receptor is 0.103 nM.

B8: GLP-1 fusion peptide GF8 (SEQ ID NO:120) (Fc fusion)
chain: HGEGTFTSDVSSYLEEQAAKEFIAWLVKGGGGGGGAGGGGAGGGGAA[human IgG4 Fc with S228P F234A L235A (EU numbers) not written out]GGGGAGGGGAGGGGACA
On to B8, for which, in the experiment with human GLP-1 receptor, the “Human GLP1R EC50” value worked out at 0.066 nM.

B9: GLP-1 fusion peptide coupled cyclic PYY peptide conjugate SEQ ID NO:252 (Fc fusion)
chain: HGEGTFTSDVSSYLEEQAAKEFIAWLVKGGGGGGGAGGGGAGGGGAA[human IgG4 Fc with S228P F234A L235A (EU numbers) not written out]GGGGAGGGGAGGGGACA
peptide: GISPEAPGEKASPEELNRYYASLRHYLNCVTRQRY
modifications: [cyclo-(G2-COCH2-C30), K(AcBr)11, N-Me-R35]-PYY2-36; Br displaced on conjugation to the linker Cys; C-terminal amide; Cys of the second linker peptide thioether-linked to the Lys11 side chain of the cyclic PYY peptide
On to B9, for which the “Human Y2R EC50” value in experiment [1] is 0.009 nM. In the experiment with human GLP-1 receptor, the “Human GLP1R EC50” value stood at 0.08 nM.

B10: GLP-1 fusion peptide GF24 (SEQ ID NO:136) (Fc fusion)
chain: HGEGTFTSDVSSYLEEQAAKEFIAWLVKGGGGGGGAGGGGAGGGGAA[human IgG4 Fc with S228P F234A L235A (EU numbers) not written out]APAPAPAPAPAPCPEEP
With B10, in the experiment with human GLP-1 receptor, the “Human GLP1R EC50” value was 0.068 nM and 0.126 nM.

B11: GLP-1 fusion peptide coupled cyclic PYY peptide conjugate SEQ ID NO:229 (Fc fusion)
chain: HGEGTFTSDVSSYLEEQAAKEFIAWLVKGGGGGGGAGGGGAGGGGAA[human IgG4 Fc with S228P F234A L235A (EU numbers) not written out]APAPAPAPAPAPCPEEP
peptide: GISPEAPGEKASPEELNRYYASLRHYLNCVTRQRY
modifications: [cyclo-(G2-COCH2-C30), K(AcBr)11, N-Me-R35]-PYY2-36; Br displaced on conjugation to the linker Cys; C-terminal amide; Cys of the second linker peptide thioether-linked to the Lys11 side chain of the cyclic PYY peptide
Regarding B11, the “Human Y2R EC50” value in experiment [1] was found to be 0.014 nM. The “Human GLP1R EC50” value with human GLP-1 receptor came out at 0.069 nM.
